# Laboratory results as given in PMC12820563, “FoxP3 forms a head-to-head dimer in vivo and stabilizes its multimerization on adjacent microsatellites”.
# This is one part of the list.
# Target: T1, MBP-FoxP1dN (Mus musculus, UniProt P58462 326-579)
# T1 sequence: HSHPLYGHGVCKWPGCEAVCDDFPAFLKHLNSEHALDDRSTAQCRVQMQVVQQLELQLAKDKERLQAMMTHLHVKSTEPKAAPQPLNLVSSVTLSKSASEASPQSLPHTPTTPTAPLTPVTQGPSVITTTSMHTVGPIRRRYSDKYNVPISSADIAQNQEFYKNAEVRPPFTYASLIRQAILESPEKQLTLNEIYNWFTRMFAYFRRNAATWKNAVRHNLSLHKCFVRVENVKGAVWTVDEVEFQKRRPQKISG
# Assay: PD-seq (MBP pull-down with sequencing); 20 mM Tris-HCl pH 7.5, 100 mM NaCl, 1.5 mM MgCl2, 0.4 uM protein, 0.1 uM dsDNA library, 30 min, room temperature, amylose pull-down; high values mean tight binding
# Details: protein: recombinant; tags: His6-MBP; chain copies: 2; dsDNA, one strand shown
# Method in brief: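 Binding is the reads-per-million enrichment of pull-down relative to input, pooled across replicates. For this, 0.4 µM His6-MBP-tagged mouse FoxP3 or FoxP1 fragment lacking the N-terminus, made in E. coli, was incubated with 0.1 µM Klenow-filled double-stranded degenerate DNA library for 30 min at room temperature in Tris pH 7.5 buffer with NaCl and MgCl2. Complexes bound to amylose resin were washed three times before proteinase K released the DNA for PCR barcoding and Illumina sequencing.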
row,Sequence,binding signal
1,GATGATTGTTCTCCCAGCTGATGAATTCGATGGGTCGAGTAAACAAATTTTCCTAATCTTTCTGTTCAAGCGCCATCTAC,0.732 RPM ratio (pull-down/input)
2,GATGATTGTTCTCCCAGCTGATGAATTTTCTACTTCGAGTAAACAAATTTTCCTAATCTTTCTGTTCAAGCGCCATCTAC,1.01 RPM ratio (pull-down/input)
3,GATGATTGTTCTCCCAGCTGATGAATTGTTAGATTCGAGTAAACAAATTTTCCTAATCTTTCTGTTCAAGCGCCATCTAC,1.18 RPM ratio (pull-down/input)
4,GATGATTGTTCTCCCAGCTGATGAATTGGGAAAGTCGAGTAAACAAATTTTCCTAATCTTTCTGTTCAAGCGCCATCTAC,0.816 RPM ratio (pull-down/input)
5,GATGATTGTTCTCCCAGCTGATGAATTGATCAAATCGAGTAAACAAATTTTCCTAATCTTTCTGTTCAAGCGCCATCTAC,1.15 RPM ratio (pull-down/input)
6,GATGATTGTTCTCCCAGCTGATGAATTCTTAGATTCGAGTAAACAAATTTTCCTAATCTTTCTGTTCAAGCGCCATCTAC,0.89 RPM ratio (pull-down/input)
7,GATGATTGTTCTCCCAGCTGATGAATTTGCCCGCTCGAGTAAACAAATTTTCCTAATCTTTCTGTTCAAGCGCCATCTAC,0.766 RPM ratio (pull-down/input)
8,GATGATTGTTCTCCCAGCTGATGAATTCAGACTTTCGAGTAAACAAATTTTCCTAATCTTTCTGTTCAAGCGCCATCTAC,0.904 RPM ratio (pull-down/input)
9,GATGATTGTTCTCCCAGCTGATGAATTACGACTCTCGAGTAAACAAATTTTCCTAATCTTTCTGTTCAAGCGCCATCTAC,0.981 RPM ratio (pull-down/input)
10,GATGATTGTTCTCCCAGCTGATGAATTGGGAATTTCGAGTAAACAAATTTTCCTAATCTTTCTGTTCAAGCGCCATCTAC,0.853 RPM ratio (pull-down/input)
11,GATGATTGTTCTCCCAGCTGATGAATTCTTCAAATCGAGTAAACAAATTTTCCTAATCTTTCTGTTCAAGCGCCATCTAC,1.01 RPM ratio (pull-down/input)
12,GATGATTGTTCTCCCAGCTGATGAATTGTTTCCTTCGAGTAAACAAATTTTCCTAATCTTTCTGTTCAAGCGCCATCTAC,1.44 RPM ratio (pull-down/input)
13,GATGATTGTTCTCCCAGCTGATGAATTCGGACACTCGAGTAAACAAATTTTCCTAATCTTTCTGTTCAAGCGCCATCTAC,0.831 RPM ratio (pull-down/input)
14,GATGATTGTTCTCCCAGCTGATGAATTATAAAGCTCGAGTAAACAAATTTTCCTAATCTTTCTGTTCAAGCGCCATCTAC,0.937 RPM ratio (pull-down/input)
15,GATGATTGTTCTCCCAGCTGATGAATTGACGCCGTCGAGTAAACAAATTTTCCTAATCTTTCTGTTCAAGCGCCATCTAC,1.11 RPM ratio (pull-down/input)
16,GATGATTGTTCTCCCAGCTGATGAATTCGGCCCTTCGAGTAAACAAATTTTCCTAATCTTTCTGTTCAAGCGCCATCTAC,0.808 RPM ratio (pull-down/input)
17,GATGATTGTTCTCCCAGCTGATGAATTCACTACGTCGAGTAAACAAATTTTCCTAATCTTTCTGTTCAAGCGCCATCTAC,0.91 RPM ratio (pull-down/input)
18,GATGATTGTTCTCCCAGCTGATGAATTATACGTCTCGAGTAAACAAATTTTCCTAATCTTTCTGTTCAAGCGCCATCTAC,0.997 RPM ratio (pull-down/input)
19,GATGATTGTTCTCCCAGCTGATGAATTGCAGTTTTCGAGTAAACAAATTTTCCTAATCTTTCTGTTCAAGCGCCATCTAC,1.52 RPM ratio (pull-down/input)
20,GATGATTGTTCTCCCAGCTGATGAATTAGCACGATCGAGTAAACAAATTTTCCTAATCTTTCTGTTCAAGCGCCATCTAC,0.875 RPM ratio (pull-down/input)
21,GATGATTGTTCTCCCAGCTGATGAATTGACGTACTCGAGTAAACAAATTTTCCTAATCTTTCTGTTCAAGCGCCATCTAC,1.09 RPM ratio (pull-down/input)

row,Sequence,binding signal
1,GATGATTGTTCTCCCAGCTGATGAATTTTATTTCTCGAGTAAACAAATTTTCCTAATCTTTCTGTTCAAGCGCCATCTAC,1.16 RPM ratio (pull-down/input)
2,GATGATTGTTCTCCCAGCTGATGAATTTAAGCCGTCGAGTAAACAAATTTTCCTAATCTTTCTGTTCAAGCGCCATCTAC,0.861 RPM ratio (pull-down/input)
3,GATGATTGTTCTCCCAGCTGATGAATTTGCGTAATCGAGTAAACAAATTTTCCTAATCTTTCTGTTCAAGCGCCATCTAC,1.51 RPM ratio (pull-down/input)
4,GATGATTGTTCTCCCAGCTGATGAATTGCCGCCCTCGAGTAAACAAATTTTCCTAATCTTTCTGTTCAAGCGCCATCTAC,0.912 RPM ratio (pull-down/input)
5,GATGATTGTTCTCCCAGCTGATGAATTTTATTGTTCGAGTAAACAAATTTTCCTAATCTTTCTGTTCAAGCGCCATCTAC,2.31 RPM ratio (pull-down/input)
6,GATGATTGTTCTCCCAGCTGATGAATTGGTCCCCTCGAGTAAACAAATTTTCCTAATCTTTCTGTTCAAGCGCCATCTAC,0.821 RPM ratio (pull-down/input)
7,GATGATTGTTCTCCCAGCTGATGAATTTGCTAACTCGAGTAAACAAATTTTCCTAATCTTTCTGTTCAAGCGCCATCTAC,1.02 RPM ratio (pull-down/input)
8,GATGATTGTTCTCCCAGCTGATGAATTGCCCTATTCGAGTAAACAAATTTTCCTAATCTTTCTGTTCAAGCGCCATCTAC,0.991 RPM ratio (pull-down/input)
9,GATGATTGTTCTCCCAGCTGATGAATTACTTCCCTCGAGTAAACAAATTTTCCTAATCTTTCTGTTCAAGCGCCATCTAC,0.971 RPM ratio (pull-down/input)
10,GATGATTGTTCTCCCAGCTGATGAATTAGACCATTCGAGTAAACAAATTTTCCTAATCTTTCTGTTCAAGCGCCATCTAC,0.914 RPM ratio (pull-down/input)
11,GATGATTGTTCTCCCAGCTGATGAATTGAATTATTCGAGTAAACAAATTTTCCTAATCTTTCTGTTCAAGCGCCATCTAC,1.03 RPM ratio (pull-down/input)
12,GATGATTGTTCTCCCAGCTGATGAATTGGTAGCATCGAGTAAACAAATTTTCCTAATCTTTCTGTTCAAGCGCCATCTAC,1.17 RPM ratio (pull-down/input)
13,GATGATTGTTCTCCCAGCTGATGAATTGAGCGAATCGAGTAAACAAATTTTCCTAATCTTTCTGTTCAAGCGCCATCTAC,0.866 RPM ratio (pull-down/input)
14,GATGATTGTTCTCCCAGCTGATGAATTAAATGGATCGAGTAAACAAATTTTCCTAATCTTTCTGTTCAAGCGCCATCTAC,0.969 RPM ratio (pull-down/input)
15,GATGATTGTTCTCCCAGCTGATGAATTTGAACAATCGAGTAAACAAATTTTCCTAATCTTTCTGTTCAAGCGCCATCTAC,1.3 RPM ratio (pull-down/input)
16,GATGATTGTTCTCCCAGCTGATGAATTTAGTAAATCGAGTAAACAAATTTTCCTAATCTTTCTGTTCAAGCGCCATCTAC,1.58 RPM ratio (pull-down/input)
17,GATGATTGTTCTCCCAGCTGATGAATTTTAACCATCGAGTAAACAAATTTTCCTAATCTTTCTGTTCAAGCGCCATCTAC,0.987 RPM ratio (pull-down/input)
18,GATGATTGTTCTCCCAGCTGATGAATTATATCACTCGAGTAAACAAATTTTCCTAATCTTTCTGTTCAAGCGCCATCTAC,0.986 RPM ratio (pull-down/input)
19,GATGATTGTTCTCCCAGCTGATGAATTATCATATTCGAGTAAACAAATTTTCCTAATCTTTCTGTTCAAGCGCCATCTAC,1.06 RPM ratio (pull-down/input)
20,GATGATTGTTCTCCCAGCTGATGAATTACAGGCATCGAGTAAACAAATTTTCCTAATCTTTCTGTTCAAGCGCCATCTAC,1.14 RPM ratio (pull-down/input)
21,GATGATTGTTCTCCCAGCTGATGAATTACATCGTTCGAGTAAACAAATTTTCCTAATCTTTCTGTTCAAGCGCCATCTAC,1.06 RPM ratio (pull-down/input)

row,Sequence,binding signal
1,GATGATTGTTCTCCCAGCTGATGAATTGCGGTTATCGAGTAAACAAATTTTCCTAATCTTTCTGTTCAAGCGCCATCTAC,1.17 RPM ratio (pull-down/input)
2,GATGATTGTTCTCCCAGCTGATGAATTGGTATACTCGAGTAAACAAATTTTCCTAATCTTTCTGTTCAAGCGCCATCTAC,1.08 RPM ratio (pull-down/input)
3,GATGATTGTTCTCCCAGCTGATGAATTTCGACGTTCGAGTAAACAAATTTTCCTAATCTTTCTGTTCAAGCGCCATCTAC,0.937 RPM ratio (pull-down/input)
4,GATGATTGTTCTCCCAGCTGATGAATTAAAATCATCGAGTAAACAAATTTTCCTAATCTTTCTGTTCAAGCGCCATCTAC,1.09 RPM ratio (pull-down/input)
5,GATGATTGTTCTCCCAGCTGATGAATTCATTTCCTCGAGTAAACAAATTTTCCTAATCTTTCTGTTCAAGCGCCATCTAC,0.805 RPM ratio (pull-down/input)
6,GATGATTGTTCTCCCAGCTGATGAATTTGACATGTCGAGTAAACAAATTTTCCTAATCTTTCTGTTCAAGCGCCATCTAC,0.886 RPM ratio (pull-down/input)
7,GATGATTGTTCTCCCAGCTGATGAATTATCAATTTCGAGTAAACAAATTTTCCTAATCTTTCTGTTCAAGCGCCATCTAC,1.12 RPM ratio (pull-down/input)
8,GATGATTGTTCTCCCAGCTGATGAATTGATAGGTTCGAGTAAACAAATTTTCCTAATCTTTCTGTTCAAGCGCCATCTAC,0.902 RPM ratio (pull-down/input)
9,GATGATTGTTCTCCCAGCTGATGAATTAGACTTGTCGAGTAAACAAATTTTCCTAATCTTTCTGTTCAAGCGCCATCTAC,0.89 RPM ratio (pull-down/input)
10,GATGATTGTTCTCCCAGCTGATGAATTCGTAACGTCGAGTAAACAAATTTTCCTAATCTTTCTGTTCAAGCGCCATCTAC,1.01 RPM ratio (pull-down/input)
11,GATGATTGTTCTCCCAGCTGATGAATTGACTCCGTCGAGTAAACAAATTTTCCTAATCTTTCTGTTCAAGCGCCATCTAC,0.991 RPM ratio (pull-down/input)
12,GATGATTGTTCTCCCAGCTGATGAATTCTCAAACTCGAGTAAACAAATTTTCCTAATCTTTCTGTTCAAGCGCCATCTAC,0.811 RPM ratio (pull-down/input)
13,GATGATTGTTCTCCCAGCTGATGAATTCACCGCCTCGAGTAAACAAATTTTCCTAATCTTTCTGTTCAAGCGCCATCTAC,0.899 RPM ratio (pull-down/input)
14,GATGATTGTTCTCCCAGCTGATGAATTCCTAGCTTCGAGTAAACAAATTTTCCTAATCTTTCTGTTCAAGCGCCATCTAC,0.839 RPM ratio (pull-down/input)
15,GATGATTGTTCTCCCAGCTGATGAATTAGAGTCCTCGAGTAAACAAATTTTCCTAATCTTTCTGTTCAAGCGCCATCTAC,0.859 RPM ratio (pull-down/input)
16,GATGATTGTTCTCCCAGCTGATGAATTCCGGCGCTCGAGTAAACAAATTTTCCTAATCTTTCTGTTCAAGCGCCATCTAC,0.751 RPM ratio (pull-down/input)
17,GATGATTGTTCTCCCAGCTGATGAATTTAGTACATCGAGTAAACAAATTTTCCTAATCTTTCTGTTCAAGCGCCATCTAC,1.21 RPM ratio (pull-down/input)
18,GATGATTGTTCTCCCAGCTGATGAATTTCGCTCATCGAGTAAACAAATTTTCCTAATCTTTCTGTTCAAGCGCCATCTAC,0.842 RPM ratio (pull-down/input)
19,GATGATTGTTCTCCCAGCTGATGAATTTTAATTCTCGAGTAAACAAATTTTCCTAATCTTTCTGTTCAAGCGCCATCTAC,0.922 RPM ratio (pull-down/input)
20,GATGATTGTTCTCCCAGCTGATGAATTTTGCAAGTCGAGTAAACAAATTTTCCTAATCTTTCTGTTCAAGCGCCATCTAC,0.967 RPM ratio (pull-down/input)
21,GATGATTGTTCTCCCAGCTGATGAATTACTATTCTCGAGTAAACAAATTTTCCTAATCTTTCTGTTCAAGCGCCATCTAC,1.14 RPM ratio (pull-down/input)
